The text below walks through data of article PMC7451430.

The assay deals with T1, EspB protein of Mycobacterium tuberculosis, full length (1-460) (Mycobacterium tuberculosis), P9WJD9.
T1 chain: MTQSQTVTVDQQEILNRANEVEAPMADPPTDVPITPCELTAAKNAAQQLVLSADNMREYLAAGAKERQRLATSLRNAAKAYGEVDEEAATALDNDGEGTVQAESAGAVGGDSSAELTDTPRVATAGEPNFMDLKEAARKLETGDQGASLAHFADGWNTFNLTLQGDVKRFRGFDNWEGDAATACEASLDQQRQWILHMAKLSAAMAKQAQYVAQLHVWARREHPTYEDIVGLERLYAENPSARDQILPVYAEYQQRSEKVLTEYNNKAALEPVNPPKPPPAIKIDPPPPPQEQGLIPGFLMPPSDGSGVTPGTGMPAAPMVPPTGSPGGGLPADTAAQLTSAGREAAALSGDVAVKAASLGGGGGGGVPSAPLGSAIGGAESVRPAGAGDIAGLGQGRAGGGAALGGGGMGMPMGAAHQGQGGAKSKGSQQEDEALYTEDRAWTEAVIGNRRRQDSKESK
Nature of the assay: cryo-EM structure. Particulars: remark: other sources report otherwise.

B1: EspB protein of Mycobacterium tuberculosis, full length (1-460), P9WJD9 1-460 (natural protein)
chain: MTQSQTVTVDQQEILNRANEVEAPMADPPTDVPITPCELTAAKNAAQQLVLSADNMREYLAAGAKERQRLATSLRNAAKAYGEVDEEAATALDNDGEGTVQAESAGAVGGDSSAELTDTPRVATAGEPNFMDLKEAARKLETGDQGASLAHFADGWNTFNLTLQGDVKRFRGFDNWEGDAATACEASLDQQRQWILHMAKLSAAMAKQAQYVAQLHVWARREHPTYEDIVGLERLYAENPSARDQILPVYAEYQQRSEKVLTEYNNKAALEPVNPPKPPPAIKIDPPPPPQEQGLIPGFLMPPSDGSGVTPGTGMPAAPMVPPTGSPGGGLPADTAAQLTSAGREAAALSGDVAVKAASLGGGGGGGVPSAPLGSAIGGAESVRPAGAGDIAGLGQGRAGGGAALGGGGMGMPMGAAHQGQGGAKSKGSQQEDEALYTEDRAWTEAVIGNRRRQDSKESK
B1 returned a stoichiometry N of 7.
